In PubChem BioAssay AID2147 (National Center for Advancing Translational Sciences (NCATS), 2009):
Hit rate of the full screen: of about 230,000 compounds, about 3,600 (1.6%) were called active. The inconclusive results got no clear call from the source; some entries with a clear call stand among them for comparison. The call rests on the fitted dose curve; in most records, active means well fitted inhibition curve with a large enough effect (not every such curve was filed as active); inconclusive means small, poorly fitted or top-dose-only effect, or another doubt; inactive means no such curve, though single readings can be large or run the other way. Potencies of inconclusive entries are doubtful fits and often do not repeat.

molecular target: Lysine-specific demethylase 4E (Homo sapiens) (UniProt B2RXH2); test: qHTS Assay for Inhibitors of Human Jumonji Domain Containing 2E (JMJD2E); settings: JMJD2E catalytic domain, FDH-coupled NADH fluorescence (FDH is formaldehyde dehydrogenase); series mostly up to 57.1 µM
Further: nearly all actives have a fitted effect of over 50% in size.
Potency means the concentration at half of the fitted maximal effect; tags describe the fitted curve by direction and shape.

Chain of UniProt B2RXH2 (B2RXH2 whole entry, looked up, the tested form may be a part): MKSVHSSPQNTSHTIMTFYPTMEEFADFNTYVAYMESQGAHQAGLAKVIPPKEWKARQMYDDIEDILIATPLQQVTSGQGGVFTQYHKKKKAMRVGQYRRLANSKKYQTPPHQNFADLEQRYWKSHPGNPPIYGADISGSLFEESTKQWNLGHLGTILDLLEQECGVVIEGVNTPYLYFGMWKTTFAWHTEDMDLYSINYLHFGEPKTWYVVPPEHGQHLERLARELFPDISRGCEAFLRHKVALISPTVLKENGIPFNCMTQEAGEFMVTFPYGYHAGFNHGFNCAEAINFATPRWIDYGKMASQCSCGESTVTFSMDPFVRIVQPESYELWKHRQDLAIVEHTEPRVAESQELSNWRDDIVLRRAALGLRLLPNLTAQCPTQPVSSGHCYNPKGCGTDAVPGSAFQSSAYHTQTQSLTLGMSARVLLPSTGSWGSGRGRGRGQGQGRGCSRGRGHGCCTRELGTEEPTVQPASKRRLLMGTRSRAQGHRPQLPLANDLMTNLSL

SMILES | Potency
Cc1oc(-c2ccc3ccccc3c2)nc1CN(C)C(C)c1ccncn1 (stereo unspecified) | inactive
C/C(=N\NC(=O)Cn1ccc(C(F)(F)F)n1)c1ccc(N2CCOCC2)cc1 | inconclusive: 28.2 µM [inhibitor, partial curve]
Cn1c(=O)c(/C=C/c2ccccc2)nc2ccccc21 | inconclusive: 28.2 µM [inhibitor, partial curve]
Cc1ccc(-c2cc(C(=O)Nc3ccccn3)c3ccccc3n2)o1 | inconclusive: 35.5 µM [inhibitor, partial curve]
COc1ccc(-c2nn(-c3ccccc3)cc2/C=C(\CC(=O)O)c2nc3ccccc3s2)cc1OC | inconclusive: 28.2 µM [inhibitor, partial curve]
O=C(OC(C(=O)Nc1ccc([N+](=O)[O-])cc1Br)c1ccccc1)c1ccccc1 (stereo unspecified) | inactive
CC(=O)OCC(=O)c1ccc2ccn(C(C)=O)c2c1 | inconclusive: 31.6 µM [inhibitor, partial curve]
Cc1cc([N+](=O)[O-])nn1CC(=O)Nc1c(C)n(C)n(-c2ccccc2)c1=O | inactive
N#CC1=C(N)C(C#N)(C#N)[C@H](c2ccoc2)[C@H]2CN(Cc3ccccc3)CC=C12 | inconclusive: 22.4 µM [inhibitor, partial curve]
O=C(Cn1cncn1)N/N=C/c1ccccc1O | inconclusive: 25.1 µM [inhibitor, partial curve]
O=C(Cc1c(O)c2ccccc2[nH]c1=O)OC1CCCCC1 | inconclusive: 31.6 µM [inhibitor, partial curve]
COc1ccc(F)cc1C(=O)C1CCCN(Cc2ccc(Oc3ncccn3)cc2)C1 (stereo unspecified) | inconclusive: 35.5 µM [inhibitor, single point]
Cc1noc(/C=C/N(C)C)c1S(=O)(=O)N1CCCC(C(=O)NCc2ccco2)C1 (stereo unspecified) | inconclusive: 39.8 µM [inhibitor, single point]
O=C(N/C(=C/c1ccc(Br)cc1)C(=O)N1CCOCC1)c1cccs1 | inconclusive: 7.94 µM [inhibitor, partial curve, poor fit]
CC(=O)Nc1ccc2c(CN3C(=O)NC(C)(c4ccc(C)cc4)C3=O)cc(=O)oc2c1 (stereo unspecified) | inconclusive: 28.2 µM [inhibitor, partial curve]
O=C(NCCN1C(=O)S/C(=C\c2ccccc2)C1=O)C1CCN(S(=O)(=O)c2cccs2)CC1 | inconclusive: 39.8 µM [inhibitor, single point]
COc1ccc(/C(O)=C2/C(=O)C(=O)N(Cc3ccco3)C2c2cccs2)cc1 (stereo unspecified) | inconclusive: 25.1 µM [inhibitor, single point]
COc1ccc(S(=O)(=O)Nc2c(C(=O)O)[nH]c3ccccc23)c(OC)c1 | inactive
CCN(CC)c1ccc(/C=N/Nc2ccc(C)cc2)c(O)c1 | inconclusive: 28.2 µM [inhibitor, single point]
CCN1C(=O)/C(=C\c2cccs2)C(C(=O)OC)=C1C | inactive
CCCCC(=O)Nc1cccc(-c2csc(-c3ccccc3)n2)c1 | inconclusive: 39.8 µM [inhibitor, single point]
CNC(=S)NNC(=O)c1cccn(Cc2ccc(Cl)c(Cl)c2)c1=O | inconclusive: 39.8 µM [inhibitor, single point]
COc1ccccc1NC(=O)c1sc2nc(Cc3ccccc3)cc(C(F)(F)F)c2c1N | inactive
Cc1ccc(C(=O)O)cc1-c1ccc(/C=C2\SC(=O)N(CC(=O)Nc3ccccc3)C2=O)o1 | inconclusive: 14.1 µM [inhibitor, partial curve]

SMILES | Potency
CCOC(=O)CC1COCCN1Cc1cn[nH]c1-c1ccc2c(c1)OCO2 (stereo unspecified) | inconclusive: 35.5 µM [inhibitor, single point]
CC1Cc2nc(SCC(=O)NC3CCCCC3)n(C)c(=O)c2S1 (stereo unspecified) | inconclusive: 25.1 µM [inhibitor, single point]
Cc1cc2cc3c(cc2nc1SCC(=O)OC(C)C)OCCO3 | inconclusive: 39.8 µM [inhibitor, single point]
NS(=O)(=O)c1ccc(CNC(=O)c2cc(-c3ccccn3)nc3ccc(Cl)cc23)cc1 | inconclusive: 39.8 µM [inhibitor, single point]
Cc1ccc(/C=N/NC(=O)c2cccc(S(=O)(=O)Nc3ccccc3Cl)c2)s1 | inconclusive: 6.31 µM [inhibitor, single point]
CCOc1ccc(C(=O)Nc2ccc(Cc3ccncc3)cc2)cc1Br | inconclusive: 39.8 µM [inhibitor, single point]
COc1cccc(-c2nnc(N(C)C(=O)C3CCOC3)s2)c1 (stereo unspecified) | inconclusive: 22.4 µM [inhibitor, partial curve]
COc1ccccc1-c1n[nH]c(=S)n1-c1ccccc1 | inconclusive: 35.5 µM [inhibitor, single point]
CS(=O)(=O)Nc1ccc(C(=O)Nc2cccc([N+](=O)[O-])c2)cc1 | inconclusive: 12.6 µM [inhibitor, partial curve]
Cc1ccc(S(=O)(=O)N(CCCO)Cc2cc3c(C)ccc(C)c3[nH]c2=O)cc1 | inconclusive: 25.1 µM [inhibitor, single point]
COc1ccc(-c2ccnc3nc(N4CCOCC4)nn23)cc1 | inconclusive: 23.8 µM [inhibitor, partial curve]
O=C(N/N=C/c1ccc(Cl)cc1Cl)c1cccc(F)c1 | inactive
O=C(O)CCC/C=C\C/C=C\C=C\[C@@H](O)C/C=C\CCCCCO | inactive
c1ccc(-c2nc(-n3nc4ccccc4n3)nc3ccccc23)cc1 | inconclusive: 31.6 µM [inhibitor, partial curve]
c1ccc(C2c3[nH]c4ccccc4c3CCN2Cc2cccn2-c2ccccn2)nc1 (stereo unspecified) | inconclusive: 22.4 µM [inhibitor, single point]
Cn1c(=O)oc2cc(S(=O)(=O)NCc3cccnc3)ccc21 | inactive
CCC(C)NC(=O)c1ccccc1NC(=O)C(C)N(c1ccccc1)S(C)(=O)=O (stereo unspecified) | inconclusive: 39.8 µM [inhibitor, single point]
CSc1nc(C)c2c(n1)N(c1cccc(C)c1)CC2 | inconclusive: 15.8 µM [inhibitor, partial curve]
N#C/C(=N/Nc1ccccc1[N+](=O)[O-])C(N)=S | inactive
COc1ccc(CCNC(=O)CN2CCN(c3ccccc3Cl)CC2)cc1 | inactive
Cc1nn(-c2ccccc2)nc1C(=O)Nc1nnc(C(F)(F)F)s1 | inactive
Cc1sc(=NC(=O)c2ccco2)n(C)c1-c1ccc(F)cc1 | inconclusive: 39.8 µM [inhibitor, single point]
Cc1ccc(-c2nc(CN3CCCCC3CCN3CCCC3=O)c(C)o2)o1 (stereo unspecified) | inconclusive: 28.2 µM [inhibitor, partial curve]
COc1cc2c(cc1NC(=O)CN1C(=O)NC3(CCc4ccccc43)C1=O)oc1ccccc12 (stereo unspecified) | inconclusive: 35.5 µM [inhibitor, single point]

SMILES | Potency
CCNC(=S)N1CCN(CC)CC1 | inconclusive: 25.1 µM [inhibitor, single point]
COc1cc(C)ccc1OCCOCCOc1c(C)cc(C)cc1Br | inconclusive: 35.5 µM [inhibitor, single point]
O=C(Nc1ccccc1Cl)c1cc(S(=O)(=O)N2CCCC(C(=O)O)C2)ccc1F (stereo unspecified) | inactive
CCC(=O)NNc1ccc(Br)cc1 | inactive
O=c1c2c(nc3c(-c4cccc5ccccc45)c[nH]n13)CCC2 | inconclusive: 25.1 µM [inhibitor, partial curve]
O=c1c2cc(Br)ccc2nc(-c2ccc([N+](=O)[O-])cc2)n1O | inactive
COc1ccc(N(CC(=O)N2c3ccccc3CC2C)S(=O)(=O)c2c(C)noc2C)cc1 (stereo unspecified) | inactive
O=C(c1ccc(CS(=O)(=O)c2c(Cl)cccc2Cl)o1)N1CCCC1 | inactive
COc1ccc(CNc2nc(-c3cccnc3)nn2C(=O)c2cccs2)cc1 | inconclusive: 39.8 µM [inhibitor, single point]
Cc1c(Cl)cccc1Nc1nc(N)nc(CN2CCc3ccccc3C2)n1 | inconclusive: 35.5 µM [inhibitor, single point]
CCOC(=O)C1(Cc2cccc(OC)c2)CCCN(C(=O)CCc2cccnc2)C1 (stereo unspecified) | inconclusive: 14.1 µM [inhibitor, partial curve, poor fit]
O=C(O)COc1ccccc1/C=N/NC(=O)CSc1nc2ccccc2n1Cc1ccccc1Cl | inactive
Cc1cccc(N2CCN(C(=S)c3ccc([N+](=O)[O-])cc3)CC2)c1 | inactive
CCOC(=O)c1[nH]c(CO)c(C(=O)OCC)c1C | inactive
COC(=O)CN1C(=O)S/C(=C/c2ccc(N3CCCCC3)o2)C1=O | inconclusive: 3.16 µM [inhibitor, full curve]
COc1ccc(CC(=O)N2CCN(C(=O)c3ccco3)CC2)cc1 | inactive
Cc1nc(OCc2ccccc2)c2ccccc2n1 | inactive
COc1ccc(/C=C/c2nc3ccccc3n2Cc2ccccc2OC)cc1 | inconclusive: 25.1 µM [inhibitor, partial curve]
Nc1nc(N)nc(COc2ccccc2)n1 | inactive
CCOc1ccc2[nH]c3c(=O)n(CCc4ccc(OC)cc4)cnc3c2c1 | inconclusive: 8.91 µM [inhibitor, partial curve]
COc1ccc(-c2nnc3n2C(C)(C)Cc2cc(OC)c(OC)cc2-3)cc1 | inconclusive: 17.8 µM [inhibitor, single point]
CC1(C)CC(=O)C(C=NCc2ccc3c(c2)OCO3)=C(O)C1 | inactive
COc1ccc(OC)c(C2C=C(C34CC5CC(CC(C5)C3)C4)NC(=S)N2)c1 (stereo unspecified) | inconclusive: 15.8 µM [inhibitor, partial curve]
